Data reported in PubChem BioAssay (NCATS).
The shares of active, inactive and inconclusive entries below differ from those in the screen. For part of these data: Where the call is inconclusive, the potency comes from a doubtful curve fit. Active and inactive are the calls of the source. Calls follow the shape of the dose curve; as a rule, active = well fitted curve in the direction sought with a large enough effect; inconclusive = small, poorly fitted or top-dose-only effect, or another doubt; inactive = no such curve, though single readings can be large; an effect the other way counts as inactive or inconclusive.

Key:
[1] = test system: Zika virus NS2B-NS3 protease (linked construct); test: Primary screen NINDS Rhodamine qHTS for Zika virus inhibitors (AID 1347160); also: potency is read from the fitted curve at half-maximal effect; nearly all actives have a fitted effect of over 55% in size
In short: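 Percent inhibition, normalized to uninhibited and enzyme-free controls, is fitted to a 4-parameter Hill equation. Fluorescence change comes from a 15-min cleavage of 1.5 microM bis-peptide Rhodamine110 substrate by 25 nM linked NS2B-NS3 at room temperature.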

[2] = Primary qHTS for inhibitors of nuclear receptor binding SET domain protein 2 (NSD2) in an isogenic RCH-ACV NSD2 p.E1099K mutant (9B) (AID 1645876); conditions: activity change, negative = viability loss: at 44.9 µM (top of the series) unless noted; also: % is scaled to controls: 0 for no effect and ±100 for the full control effect; nearly all actives have a fitted effect of over 70% in size
CAOV3 = test: Primary qHTS to identify gynecologic anti-cancer compounds using libraries of approved drugs and bioactive compounds (AID 1345084); conditions: Gynecologic cancer cell panel viability, ATPlite luminescence, 48 h; series mostly up to 57.5 µM; also: nearly all actives have a fitted effect of over 55% in size; also: potency is read from the fitted curve at half-maximal effect; as to activity change, negative = cytotoxicity: % is scaled to controls: 0 for no effect and ±100 for the full control effect
In short: (§1)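 Cells, 1,000 per well, were allowed to settle for 16 h at 37 C before compound addition. Five concentrations were tested for 48 h, and viability was read by ATPlite luminescence after 15 min at room temperature.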

OV90 = test: as above; conditions: Gynecologic cancer cell panel viability, ATPlite luminescence, 48 h; series mostly up to 57.5 µM
In short: as §1

PA-1 = test: as above; conditions: Gynecologic cancer cell panel viability, ATPlite luminescence, 48 h; series mostly up to 57.5 µM
In short: as §1

[3] = S16 Schwann cell viability assay (CellTiter-Glo assay) (AID 624031);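 also: cellular ATP luminescence as a viability measure; plate controls were DMSO-treated cells for no effect and cell-free wells for full effect; nearly all actives have a fitted effect of over 70% in size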
In short: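 This viability control uses native rat S16 Schwann cells grown in DMEM plus 10% FBS. After a 24 h compound treatment at 37 °C, CellTiter-Glo luminescence reports ATP content, scaled against DMSO-treated and cell-free wells.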

[4] = qHTS of pediatric cancer cell lines to identify multiple opportunities for drug repurposing: Primary screen for SJ-GBM2 cells (AID 1347091);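 also: plate controls were DMSO neutral control for no effect and bortezomib for full effect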
In short: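 Cell viability, CellTiter-Glo luminescence; 500-1,000 cells/well, 8- or 11-point titration, 48 h compound exposure at 37 degrees C, 5% CO2. Controls: DMSO neutral, bortezomib 2.3 µM final as positive.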

[5] = qHTS of pediatric cancer cell lines to identify multiple opportunities for drug repurposing: Primary screen for SK-N-MC cells (AID 1347093); conditions: SK-N-MC viability, CellTiter-Glo luminescence, 48 h; activity change, negative = cytotoxic: at 46 µM (top of the series);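 also: plate controls were DMSO neutral control for no effect and bortezomib for full effect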
In short: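 Metabolically active cells were quantified by ATP-dependent luminescence (CellTiter-Glo, 15 min at room temperature) following 48 h treatment. Cells had been plated at 500-1,000 per well and settled for 5 h beforehand.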

[6] = qHTS of pediatric cancer cell lines to identify multiple opportunities for drug repurposing: Primary screen for BT-37 cells (AID 1347094);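 also: plate controls were DMSO for no effect and bortezomib for full effect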
In short: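 Primary screen of approved and investigational compounds on cells in growth media at 37 degrees C, 5% CO2. MIPE set at 11-point and NPC set at 8-point dilutions; viability scored by ATP-based luminescence at 48 hours.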

[7] = Primary qHTS for small molecule stabilizers of the endoplasmic reticulum resident proteome: Secreted ER Calcium Modulated Protein (SERCaMP) assay (AID 1508630); conditions: SH-SY5Y GLuc-SERCaMP (Gaussia luciferase released on ER calcium loss) secretion, thapsigargin, luminescence; activity change, negative = inhibition: at 38.4 µM (top of the series) unless noted; also: potency is read from the fitted curve at half-maximal effect
In short: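 GLuc-SERCaMP-expressing SH-SY5Y cells, pretreated 16 h with compound, are challenged with thapsigargin to empty ER calcium stores; after 4 h, coelenterazine is added directly to the medium and luminescence is imaged.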

SKOV3 = test: Primary qHTS to identify gynecologic anti-cancer compounds using libraries of approved drugs and bioactive compounds (AID 1345084); conditions: Gynecologic cancer cell panel viability, ATPlite luminescence, 48 h; series mostly up to 57.5 µM; also: nearly all actives have a fitted effect of over 55% in size; also: potency is read from the fitted curve at half-maximal effect; as to activity change, negative = cytotoxicity: % is scaled to controls: 0 for no effect and ±100 for the full control effect
In short: as §1

CP191 = test: qHTS profiling for inhibitors of Plasmodium falciparum proliferation (AID 504749);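 also: 0% = DMSO vehicle and full inhibition = artemisinin control; nearly all actives have a fitted effect of over 60% in size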; conditions: P. falciparum in erythrocytes, SYBR Green DNA, 72 h; series mostly up to 28.7 µM
In short: (§2)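 Three-day growth assay of blood-stage parasites in erythrocytes (0.3% parasitemia, 2.5% hematocrit) at 37 C, 5% CO2, quantified by SYBR Green DNA staining after overnight detergent lysis.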

CP247 = test: as above; conditions: P. falciparum in erythrocytes, SYBR Green DNA, 72 h; series mostly up to 28.7 µM
In short: as §2

CP335 = test: as above; conditions: P. falciparum in erythrocytes, SYBR Green DNA, 72 h; series mostly up to 28.7 µM
In short: as §2

N140 = test: as above; conditions: P. falciparum in erythrocytes, SYBR Green DNA, 72 h; series mostly up to 28.7 µM
In short: as §2

[8] = test system: Zika virus NS2B-NS3 protease (unlinked complex); test: Primary screen GU Rhodamine qHTS for Zika virus inhibitors: Unlinked NS2B-NS3 protease assay (AID 1347159); conditions: Recombinant ZIKV NS2B-NS3 protease, Rhodamine110 substrate fluorescence; activity change, negative = inhibition: at 107 µM (top of the series); also: potency is read from the fitted curve at half-maximal effect; nearly all actives have a fitted effect of over 60% in size
In short: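 Compounds, tested up to 114 microM, were incubated for 15 minutes with 25 nM unlinked NS2B-NS3 protease at pH 8.0. Cleavage of 1.5 microM Rhodamine110 substrate was then followed by fluorescence for 15 minutes.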

[9] = Primary redox qHTS assay for identification of artifact compounds. (AID 1845223); also: potency is read from the fitted curve at half-maximal effect
In short: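 Amplex Red (25 uM) and HRP (250 mU/mL) in HBSS, with compounds for 15 min, then 250 uM DTT for 30 min, room temperature, dark. Fluorescence 525/598 nm read; normalized to DMSO and 10 uM DA3003; Hill fit.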

JEG-3 = test: Primary qHTS to identify gynecologic anti-cancer compounds using libraries of approved drugs and bioactive compounds (AID 1345084); conditions: Gynecologic cancer cell panel viability, ATPlite luminescence, 48 h; series mostly up to 57.5 µM; also: nearly all actives have a fitted effect of over 55% in size; also: potency is read from the fitted curve at half-maximal effect; as to activity change, negative = cytotoxicity: % is scaled to controls: 0 for no effect and ±100 for the full control effect
In short: as §1

[10] = P-glycoprotein substrates identified in KB-8-5-11 adenocarcinoma cell line, qHTS therapeutic library screen (AID 1346987); conditions: activity change, negative = cytotoxicity: at 44.5 µM (top of the series); also: nearly all actives have a fitted effect of over 65% in size
In short: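 KB-8-5-11: colchicine-selected sub-line of KB-3-1 over-expressing P-gp; assay medium lacked colchicine. 72 h drug exposure at 37 degree C, CellTiter-Glo.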

[11] = ZIKV-mCherry secondary qHTS for Zika virus inhibitors (AID 1347158); also: potency is read from the fitted curve at half-maximal effect
In short: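 Vero cells, 5,000/well, plated overnight at 37 °C, then compound added and infected with recombinant ZIKV-mCherry at MOI 1 for 48-72 h. PFA-fixed, Hoechst nuclear stain, high-content imaging; cells with mCherry intensity above 450 RFU scored infected, reported as percent infection.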

[12] = biological target: Luciferin 4-monooxygenase (Photinus pyralis) (UniProt P08659); test: Primary firefly luciferase (FLuc) qHTS assay for identification of artifact compounds. (AID 1845220); also: potency is read from the fitted curve at half-maximal effect; nearly all actives have a fitted effect of over 60% in size
In short: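 FLuc 10 nM; luciferin 10 uM; ATP 10 uM; Tris-acetate pH 7.6, Mg-acetate 10 mM; 15 min RT preincubation; 5 min reaction; luminescence.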

[13] = Primary fluorescence-based thiol-reactive (MSTI) qHTS assay for identification of artifact compounds. (AID 1845221);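 also: potency is read from the fitted curve at half-maximal effect; thiol-reactive compounds lower the probe fluorescence signal; nearly all actives have a fitted effect of over 65% in size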
In short: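 qHTS titration of compound; 4 uM MSTI, PBS pH 7.4, 2% DMSO; 1 h RT, dark; fluorescence 525/598 nm; normalized to Acetyl-MSTI and MSTI; 4-parameter Hill fit.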

Hek293T = test: Primary qHTS to identify gynecologic anti-cancer compounds using libraries of approved drugs and bioactive compounds (AID 1345084); conditions: Gynecologic cancer cell panel viability, ATPlite luminescence, 48 h, control line for the selectivity index; series mostly up to 57.5 µM; also: nearly all actives have a fitted effect of over 55% in size; also: potency is read from the fitted curve at half-maximal effect; as to activity change, negative = cytotoxicity: % is scaled to controls: 0 for no effect and ±100 for the full control effect
In short: as §1

Tov112D = test: as above; conditions: Gynecologic cancer cell panel viability, ATPlite luminescence, 48 h; series mostly up to 57.5 µM
In short: as §1
Tags tell the direction and shape of the fitted curve.

CCCC(=O)Nc1cccc(NC(=O)c2ccccc2Br)c1
inconclusive: Potency [1] 0.794 µM [inhibitor, full curve, poor fit]
inactive: Potency [2] | Potency (CAOV3) | Potency (OV90) | Potency (PA-1)

CCCCNC(=O)NS(=O)(=O)c1ccc(N)cc1
inconclusive: Potency [7] 3.55 µM [inhibitor, partial curve, poor fit] | Potency (SKOV3) 3.16 µM [cytotoxic, single point]
inactive: Potency [3] | Potency [4] | Potency [5] | Potency [6] | Potency (CAOV3) | Potency (OV90) | Potency (CP191) | Potency (CP247) | Potency (CP335) | Potency (N140)

CC1(CO)CC(O)C2(C)CCC3(C)C(=CCC4C5(C=O)CCC(OC6OC(C(=O)O)C(O)C(O)C6OC6OC(C(=O)O)C(O)C(O)C6O)C(C)(C)C5CCC43C)C2C1 (centres undefined)
inconclusive: Potency [8] 14.1 µM [inhibitor, partial curve] | Potency [1] 3.1 µM [inhibitor, partial curve, poor fit] | Potency [9] 8.98 µM [activator, single point] | Potency (PA-1) 11.2 µM [rising, single point] | Potency (SKOV3) 11.2 µM [rising, single point]
inactive: activity change, negative = viability loss [2] -5.71% [at 9.23 µM] | activity change, negative = cytotoxicity (CAOV3) 8.53% [at 11.6 µM] | activity change, negative = cytotoxicity (JEG-3) 2.3% [at 11.6 µM]

O=C(Nc1ccccc1)Nc1ccc(-c2ccc(C(=O)C3CCCC3C(=O)O)cc2)cc1 (centres undefined)
inactive: Potency [10] | Potency (PA-1)
inconclusive: Potency [11] 25.1 µM [inhibitor, partial curve, poor fit] | Potency [12] 37.9 µM [inhibitor, partial curve, poor fit] | Potency (CAOV3) 2 µM [rising, partial curve, poor fit] | Potency (SKOV3) 2.51 µM [rising, full curve, poor fit]

C[C@]1(CO)CCC[C@]2(C)C3=C(CCC12)COC3 (some centres undefined)
inconclusive: Potency [13] 5.32 µM [inhibitor, partial curve, poor fit] | Potency (CAOV3) 25.1 µM [rising, single point]
inactive: Potency (Hek293T) | Potency (Tov112D)

COc1ccc(-c2c(C)c(C(=O)NN3CCCCC3)nn2-c2ccc(Cl)cc2Cl)cc1
inconclusive: Potency [8] 63.1 µM [inhibitor, partial curve] | Potency (CAOV3) 3.98 µM [rising, single point] | Potency (JEG-3) 31.6 µM [cytotoxic, single point]
inactive: Potency (Tov112D)
